Reference: PMC4336329 (PLoS ONE, 2015)
Among all 310,000 compounds or so, about 14,000 (4.5%) showed an effect of 50% or more. Effects have a minus sign here. The list shows a part of the results.

Target: human ether-à-go-go-related gene (hERG) potassium channel (human, UniProt Q12809)
Assay: primary screen, population patch clamp on CHO cells stably expressing hERG
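Further: peak tail current of the secondary pulse compared with the same well before compound.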

Sequence of human ether-à-go-go-related gene (hERG) potassium channel (Q12809 whole entry, looked up): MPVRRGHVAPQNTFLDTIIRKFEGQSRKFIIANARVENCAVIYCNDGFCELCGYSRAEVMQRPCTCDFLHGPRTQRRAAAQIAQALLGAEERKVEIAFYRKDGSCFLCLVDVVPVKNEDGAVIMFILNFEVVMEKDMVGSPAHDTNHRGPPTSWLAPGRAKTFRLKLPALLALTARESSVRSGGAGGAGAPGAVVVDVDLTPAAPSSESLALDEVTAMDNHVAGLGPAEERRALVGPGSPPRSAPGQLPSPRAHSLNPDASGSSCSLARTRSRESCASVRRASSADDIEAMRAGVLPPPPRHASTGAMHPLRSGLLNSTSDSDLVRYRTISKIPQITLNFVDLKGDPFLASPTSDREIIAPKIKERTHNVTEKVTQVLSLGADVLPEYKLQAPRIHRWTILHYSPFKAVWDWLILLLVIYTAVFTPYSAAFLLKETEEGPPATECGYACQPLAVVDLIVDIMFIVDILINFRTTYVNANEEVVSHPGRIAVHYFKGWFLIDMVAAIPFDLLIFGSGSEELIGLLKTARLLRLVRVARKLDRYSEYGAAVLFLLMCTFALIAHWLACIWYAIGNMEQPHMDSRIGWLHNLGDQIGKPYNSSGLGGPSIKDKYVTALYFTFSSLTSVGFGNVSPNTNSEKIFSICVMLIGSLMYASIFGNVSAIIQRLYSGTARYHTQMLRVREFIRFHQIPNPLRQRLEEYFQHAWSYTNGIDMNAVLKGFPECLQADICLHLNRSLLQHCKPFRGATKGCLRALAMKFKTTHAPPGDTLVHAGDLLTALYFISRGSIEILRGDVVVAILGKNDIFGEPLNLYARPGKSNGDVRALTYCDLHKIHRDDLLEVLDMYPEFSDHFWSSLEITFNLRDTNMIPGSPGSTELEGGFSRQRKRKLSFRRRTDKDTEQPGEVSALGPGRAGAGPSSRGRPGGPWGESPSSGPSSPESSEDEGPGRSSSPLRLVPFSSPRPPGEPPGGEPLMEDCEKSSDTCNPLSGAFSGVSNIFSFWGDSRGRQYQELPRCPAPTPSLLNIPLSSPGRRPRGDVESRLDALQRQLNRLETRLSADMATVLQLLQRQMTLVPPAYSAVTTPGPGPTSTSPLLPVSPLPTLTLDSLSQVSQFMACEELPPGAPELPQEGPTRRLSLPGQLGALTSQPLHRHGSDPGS

| Compound | hERG current change (%, negative = inhibition) at 10uM [%] |
| --- | --- |
| COCCn1c(SCC(=O)Nc2ccc(C)cc2C)nc2c(oc3ccccc32)c1=O | -9.43 |
| O=C(Nc1nc2ccc(S(=O)(=O)N3CCCCC3)cc2s1)c1ccncc1 | -34.6 |
| O=C(NNc1ccc(-c2csnn2)cc1)c1cc(Cl)cc(Cl)c1 | 8.72 |
| O=C(O)c1ccc(O)cc1O | 7.89 |
| CCC(Oc1ccccc1)C(=O)Nc1ccccc1C(=O)N1CCOCC1 (centres unmarked) | 16.7 |
| CC(C)(C)NC(=O)Nc1ccc(Cn2cc(C(F)(F)F)ccc2=O)cc1 | 4.88 |
| Cc1ccc(-c2cc(C(=O)NCC3CCCO3)c3ccccc3n2)cc1C (centres unmarked) | 12.1 |
| CC1=C(CC(=O)c2ccccc2)C(=O)c2ccccc2C1=O | 4.35 |
| CC(C)(C)[C@H]1C=C(C(=O)NC2CC2)O[C@@H](OCCCCO)C1 | 18.4 |
| Cc1cccc(N=C2Sc3nc4c(C)c(C)ccc4cc3CN2CCN2CCOCC2)c1 | 17.3 |
| Cc1coc2cc3oc(=O)c(CCC(=O)NCCN4CCOCC4)c(C)c3cc12 | -5.47 |
| CCC(Sc1nnc(C)c(=O)[nH]1)C(=O)Nc1cccc2ccccc12 (centres unmarked) | 10 |
| CCOc1ccc(Nc2cc(=O)n(C)c(=O)n2C)cc1 | -2.15 |
| CC(C)(O)C#Cc1ccc(C(=O)N2CCN(c3ccc([N+](=O)[O-])cc3)CC2)cc1 | -70.4 |
| COc1ccc(CC(=O)NCc2n[nH]c(=S)n2-c2ccc(Br)cc2)cc1 | 13.4 |
| O=C(NCc1ccc(Cl)cc1)C1CCC(CNc2c(N3CCOCC3)c(=O)c2=O)CC1 (centres unmarked) | 14.9 |
| Cn1cc(CNCCN2CCCCC2=O)c(-c2cccc(Cl)c2)n1 | 4.48 |
| NC(=O)CC(NC(=O)c1ccc(Br)cc1)c1ccc(NC2CCCCC2)c([N+](=O)[O-])c1 (centres unmarked) | 0.425 |
| Cc1cc(NC(=O)CCC(=O)N(C(C(=O)NC(C)(C)C)c2ccccc2Cl)C(C)(C)C)no1 (centres unmarked) | 20.8 |
| c1ccc(/N=C2\N=C(Nc3ccccn3)c3ccccc32)nc1 | -9.39 |
| O=C(O)CC(Cn1[nH]nnc1=S)c1ccccc1 (centres unmarked) | 3.18 |
| COc1ccccc1N(Cc1ccccc1)S(=O)(=O)c1cccc(C(=O)Nc2ncccc2C)c1 | -23.5 |
| CC(=O)c1ccccc1N(C(=O)c1ccco1)C(C(=O)NC1CCCC1)c1ccc(N2CCOCC2)cc1 (centres unmarked) | -4.77 |
| CCN(Cc1nc(-c2ccccc2)no1)C(=O)c1ccco1 | -5.78 |
| Cn1nccc1C(=O)N1CCN(c2cccc(Cl)c2)CC1 | 11.6 |
| COc1ccc(C)cc1N(CC(=O)Nc1cccnc1)S(=O)(=O)c1ccccc1 | -11.6 |
| CC(=O)c1c(C)nc(-c2cccc([N+](=O)[O-])c2)n1O | 10.5 |

| Compound | hERG current change (%, negative = inhibition) at 10uM [%] |
| --- | --- |
| Cc1ccc(-c2csc(N3CCC[C@@H]3C(=O)NCCn3c(-c4ccncc4)nc4ccccc43)n2)cc1 | -15.3 |
| COc1ccc(-c2cc(C(F)(F)F)nc(SCCC(=O)N3CCCC3)n2)cc1 | 5.03 |
| COc1cccc(NC(=O)CCS(=O)(=O)c2cccs2)c1 | 14 |
| NS(=O)(=O)c1cccc(NC(=O)CSc2nnnn2-c2ccccc2)c1 | 1.12 |
| CN(CC(=O)Nc1cccc(F)c1)C(=O)c1ccc(N2CCCCC2)c([N+](=O)[O-])c1 | -8.94 |
| CCc1cc(-c2[nH]ncc2-c2nc3ccccc3n2C)c(O)cc1O | -13.6 |
| COc1cccc(CN(C)C(=O)CCc2nnc(-c3ccsc3)o2)c1 | -8.35 |
| NC(=O)CC(NC(=O)c1ccc(Br)cc1)c1ccc(N2CCN(c3ccccn3)CC2)c([N+](=O)[O-])c1 (centres unmarked) | -10 |
| Cc1cc(OC(C)C(=O)NCC2CCC(C(=O)O)CC2)c2c(C)c(Cc3ccccc3)c(=O)oc2c1 (centres unmarked) | -16.6 |
| CCSc1nc(O)c(C2OC(=O)c3c2ccc(OC)c3OC)c(=O)n1-c1ccccc1 (centres unmarked) | 21 |
| CCOC(=O)Cn1cc(/C=C(\C#N)C(=O)N2CCOCC2)c2ccccc21 | -5.7 |
| Cn1cc(CN2CCCC(C(=O)c3ccc(-c4ccccc4)cc3)C2)cn1 (centres unmarked) | -34.4 |
| Cc1cc(Br)ccc1S(=O)(=O)NCc1ccccc1 | -0.319 |
| COc1ccc2cc3cc(C(=O)N4CCN(c5ccccc5)CC4)oc3nc2c1 | 13.2 |
| CCN(c1ccccc1)S(=O)(=O)c1ccc(Cl)c(NC(=O)CSc2nnc(C)s2)c1 | -24.2 |
| Cc1ccsc1/C=C1/SC(=O)N(CC(=O)N2CCOCC2)C1=O | 1.16 |
| O=c1cc(-c2ccccc2)nc(SCc2ccc(Cl)cc2)[nH]1 | 11.2 |
| CCOc1ccccc1Nc1nc(N)nc(CSc2nccc(C)n2)n1 | -5.29 |
| O=C(NCCc1ccc2c(c1)OCCO2)c1cccc(S(=O)(=O)N2CCCC2)c1 | -5.94 |
| CC(=O)N(C)c1ccc(NC(=O)CCN2C(=O)c3ccccc3C2=O)cc1 | 16.5 |
| CSc1nncc(/C(C)=N\Nc2ccccc2C)n1 | -4.79 |
| Cc1ccc(S(=O)(=O)NNC(=O)Nc2cccc(F)c2)c(C)c1 | 4.66 |
| O=c1[nH]c2cc3c(cc2cc1C(c1nnnn1Cc1ccccc1)N1CCCCCC1)OCCO3 (centres unmarked) | -11.2 |
| CCCCCCCCOC(=O)c1nc(Cl)c(Cl)c(N)c1Cl | -66.3 |
| Cc1onc(C(N)=O)c1C(=O)Nc1ncc(C(F)(F)F)cc1Cl | 11.6 |
| CC(C)(C)c1cc(C(=O)NCCCn2ccnc2)cc(C(C)(C)C)c1.Cl | 13.1 |
